Laboratory results as given in PubChem BioAssay AID1240 (Sanford-Burnham Center for Chemical Genomics, 2008).
Among all 50,000 compounds or so, about 800 (1.6%) showed an effect of 50% or more. Some of the results follow.

The molecules below were run against Bcl-2-like protein 10 (Homo sapiens) (UniProt Q9HD36) (assay: TR3 peptide-Bcl-B binding displacers, biochemical primary FP assay, phenotype converters (AID 1240;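 further: 0% = Bcl-B with tracer peptide and DMSO and 100% = tracer peptide lacking Bcl-B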)). Conditions: GST-Bcl-B / FITC-TR3 peptide fluorescence polarization; stronger effect = higher value; compound at 3.75 mg/L.
Chain of UniProt Q9HD36 (Q9HD36 whole entry, looked up): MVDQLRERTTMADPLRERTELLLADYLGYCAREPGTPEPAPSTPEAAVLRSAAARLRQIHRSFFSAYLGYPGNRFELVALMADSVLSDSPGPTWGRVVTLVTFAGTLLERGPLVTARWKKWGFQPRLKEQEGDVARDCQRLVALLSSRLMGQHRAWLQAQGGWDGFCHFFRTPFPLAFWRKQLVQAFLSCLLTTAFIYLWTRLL
For CC(=O)Nc1ccccc1NC(=O)c1ccccc1Cl, the displacement was -8.7%. Molecule N#Cc1c(SCC(=O)c2cccs2)nc2c(c1-c1ccncc1)CCCC2 has a displacement of 3.4%. In the case of N/C(=N\OC(=O)c1ccccc1Br)c1cccnc1, the displacement is reported as 3.2%. With COc1ccc(/C=C/C(=O)C(C)(C)O)cc1 the displacement was 14.2%. In the case of COC(=O)C1=C(C)NC2=C(C(=O)CC(c3ccc(OC)c(OC)c3)C2)C1c1ccc2c(c1)OCO2 (stereo unspecified), the displacement is reported as 9.1%. In the case of Cc1c(OCc2ccccc2F)ccc2c3c(c(=O)oc12)CCC3, the displacement is reported as -5%. For Cc1ccc(NC(=O)CCN2C(=O)c3cccc4cccc(c34)C2=O)cc1, the displacement was 11.4%. Molecule COc1ccc(/C=C/C(=O)OCC(=O)c2cccc([N+](=O)[O-])c2)cc1S(=O)(=O)N1CCCCC1 has a displacement of -4.9%. Work on COc1cc(C2C3=C(CC(C)(C)CC3=O)OC3=C2C(=O)CC(C)(C)C3)ccc1Oc1nc2c(c(=O)n(C)c(=O)n2C)n1C yielded a displacement of 1.4%. Molecule OC(CN1CCOCC1)c1ccc(Br)cc1 (stereo unspecified) has a displacement of -4.7%. In the case of CCOc1ccc(C(NC(=O)c2ccccc2OC)c2ccc(OC)cc2)cc1 (stereo unspecified), the displacement is reported as -5%. COc1ccc(C2CC(=O)C3=C(C2)Nc2ccccc2NC3c2cc(Br)ccc2OC)cc1OC (stereo unspecified) showed a displacement of 2.5%. With CC(C)(C)c1cc(Cc2ccccc2)no1 the displacement was 4.5%. Molecule COc1cc(/C=c2/sc3nc4ccccc4n3c2=O)cc(Br)c1OCc1ccccc1 has a displacement of 1.8%. Molecule O=c1c2c(nc3cc(-c4cccc(F)c4)[nH]n13)CCC2 has a displacement of 5.3%. O=[N+]([O-])c1ccc(Cl)c(-n2ncnc2-c2ccc(Br)cc2)c1 showed a displacement of -2.6%. For CC(=O)N(Cc1ccc2c(c1)OCO2)C1CC(=O)N(c2cccc(Cl)c2)C1=O (stereo unspecified), the displacement was 16%. Work on COc1ccc(/C=C/C(=O)NC(=S)Nc2c(C)cc(C)cc2[N+](=O)[O-])cc1OC yielded a displacement of -8%. O=C(O)/C=C/C(=O)NNC(=O)c1ccc(O)cc1 showed a displacement of 6.5%. With O=C(CN1C(=O)/C(=C/c2ccccc2)SC1=S)Nc1nccs1 the displacement was 8.7%. In the case of COc1ccc(OCCCCn2ccnc2)cc1, the displacement is reported as 1.6%. Molecule NC(=O)c1cc2nc(-c3cccs3)cc(C(F)(F)F)n2n1 has a displacement of 5.6%. O=C(O)CCCN1C(=O)/C(=C/c2c(F)cccc2Cl)SC1=S was tested, and the displacement was 12.4%. O=C(Nc1ccc(Br)cc1)C1C2C3CCC(C3)C12 (stereo unspecified) showed a displacement of -1.2%. In the case of CCOC(=O)CSc1cc(C)nc2ccccc12, the displacement is reported as 2%. Work on COc1ccc(C(=O)Nc2nc(-c3ccccc3)c(C)s2)cc1OC yielded a displacement of -2.7%. COc1ccc(/C=N/OCC(=O)N=Nc2c(O)n(CN(C)C)c3ccc(Br)cc23)cc1 was tested, and the displacement was -0.9%. Molecule COc1ccc(C(=O)O/N=C(\N)c2ccc(OC)c(OC)c2)cc1OC has a displacement of -7%. Work on Cc1ccc(C#N)c(SCC(=O)O)n1 yielded a displacement of -1.7%. In the case of O=[N+]([O-])c1cnc(Nc2ccc3ccccc3c2)nc1, the displacement is reported as 27.5%. For O=C(Nc1ccc2nc(SCc3ccccc3)sc2c1)c1ccccc1, the displacement was 9.5%. COc1ccc(NC2=NC3(CCCCC3)N=C(N)N2)cc1 was tested, and the displacement was -17.6%. Work on CSc1ccc(S(=O)(=O)N(CC(=O)N2CCOCC2)c2ccc(C)cc2)cc1 yielded a displacement of -8.3%. Work on CC(C)(O)C#CC(O)c1ccccc1F (stereo unspecified) yielded a displacement of -5.9%. With O=C(Nc1ccccc1)c1cc(S(=O)(=O)N2CCCCC2)ccc1Cl the displacement was 5.3%. CCOC(=O)c1c(NC(=O)CSc2ncnc3sc4c(c23)CCCC4)sc2c1CCCC2 gave a displacement of 4.1%. In the case of O=C(/C=C/c1ccc(Br)cc1)N1CCN(c2ccc([N+](=O)[O-])cc2)CC1, the displacement is reported as -0.9%. Molecule COc1ccc(Cl)cc1C(=O)Nc1ccc(F)cc1 has a displacement of 1.7%. In the case of COc1ccc(C(=O)Nc2ccc(I)cc2Cl)cc1OC, the displacement is reported as -9.7%. CCCOC(=O)c1ccc(NC(=S)Nc2ccccc2)cc1 was tested, and the displacement was -10.1%. CCOc1ccc(OC)cc1/C=N/NC(=O)c1ccc(C)cc1 showed a displacement of 8.9%. For CC1S/C(=N/N=C/c2ccccc2)NC1=O (stereo unspecified), the displacement was 0.3%. For CC(C)(O)C#Cc1ccc(C(=O)NC(c2ccccc2)c2ccccc2)cc1, the displacement was -1.7%. Molecule CCOc1cccc(-c2cc(C(=O)Nc3cc(C)ccn3)c3ccccc3n2)c1 has a displacement of 2%. In the case of O=C(O)CCCCCN1C(=O)/C(=C2/C(=O)N(CC(=O)O)c3ccccc32)SC1=S, the displacement is reported as -4.5%. N#C/C(=C\c1ccccc1)C(=O)Nc1sc2c(c1C(N)=O)CCCC2 gave a displacement of -7.2%. O=C1Nc2ccccc2/C1=C\c1c(Cl)cccc1Cl gave a displacement of -18%. In the case of CC(NC(=O)CSc1nc2ccc([N+](=O)[O-])cc2s1)c1ccccc1 (stereo unspecified), the displacement is reported as 11.4%. For O=C(Nc1ccc2nn(-c3ccc(F)cc3)nc2c1)c1ccccc1[N+](=O)[O-], the displacement was 1.6%. Cc1ccc(NCCC(=O)c2cccc([N+](=O)[O-])c2)cc1 showed a displacement of 14.9%. O=C(c1cccs1)N1CCN(Cc2ccccc2)CC1 gave a displacement of -5.3%. Cc1oc2ccc(OCC(=O)c3ccccc3)cc2c1C(=O)OC(C)C gave a displacement of 8.1%. C=CCNC(=S)NC12CC3CC(CC(C3)C1)C2 gave a displacement of 18.4%. With Cc1ccc(C(C)NC(=O)c2ccccc2)c(C)c1 (stereo unspecified) the displacement was 3%. C=CCc1cc(/C=C2\C(=O)NC(=O)N(c3ccc(C)cc3)C2=O)cc(OC)c1OCC(=O)O showed a displacement of -6.6%. O=C(Nc1ccc(Nc2ccccc2)cc1)c1cccc(Br)c1 gave a displacement of -0.1%. In the case of C=CCN1C(=O)/C(=C\c2cccc(OCc3ccccc3)c2)SC1=S, the displacement is reported as 4.2%. In the case of Cc1cc(Br)ccc1N1C(=O)/C(=C/c2ccc(N(C)C)cc2)C(=O)NC1=S, the displacement is reported as -12.8%. In the case of COC(=O)c1cc(NC(=O)COc2ccccc2[N+](=O)[O-])cc(C(=O)OC)c1, the displacement is reported as 13%. Cc1cc(NC(=O)CCCC(=O)O)no1 gave a displacement of -12.3%. COc1ccc(N=c2ssc3c2-c2cc(C)c(C)cc2NC3(C)C)cc1 was tested, and the displacement was -2%. Cc1ccc(S(=O)(=O)NCCSCc2ccc(Br)cc2)cc1 gave a displacement of -4.2%. In the case of Cc1ccc(OCC(=O)N/N=C\c2ccc(C)cc2O)cc1, the displacement is reported as 4.5%. CC(=NCC(C)C)c1c(C)[nH]n(-c2ccc([N+](=O)[O-])cc2)c1=O showed a displacement of -8.9%. Molecule Cc1ccccc1C(=O)Nc1ccc(-c2ccccc2)cc1 has a displacement of 7.3%. Molecule CCOC(=O)c1c(C)oc2cc(Br)c(OC(C)=O)c(OC(C)=O)c12 has a displacement of -7.7%. CCSc1nnc(NC(=O)C(CC)CC)s1 showed a displacement of -1.6%. Molecule COc1cc(NC(=O)c2cccnc2)c(OC)cc1NC(C)=O has a displacement of 2.8%. COc1ccc(OC)c(-n2c(O)c(C=Nc3ccc4c(c3)OCO4)c(=O)[nH]c2=O)c1 was tested, and the displacement was 7.9%. Molecule CCOC(=O)C1=C(O)/C(=C/c2ccc(C(C)(C)C)cc2)N=C1C has a displacement of -15.1%. For CC(=O)C1=C(O)C(=O)N(CCN(C)C)C1c1ccc2c(c1)OCO2 (stereo unspecified), the displacement was -0.1%.
